Experimental data taken from PubChem BioAssay AID1508624 (National Center for Advancing Translational Sciences (NCATS), 2021).
Hit rate of the full screen: of about 48,000 compounds, about 120 (0.25%) were called active. About 4% were inconclusive and are not listed. Calls follow the shape of the dose curve; as a rule, active = well fitted activation curve with a large enough effect; inconclusive = small, poorly fitted or top-dose-only effect, or another doubt; inactive = no such curve, though single readings can be large or run the other way. The list shows a part of the results.

assay: Primary qHTS for Identification of Small Molecule Activators of Huntingtin-Antisense Promoter Activity; settings: HEK293 HTT-AS promoter firefly luciferase reporter, 24 h; series mostly up to 57.5 µM; activity change, positive = activation: at the top concentration; also: nearly all actives have a fitted effect of over 55% in size
Outline: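 HEK293 luciferase promoter-reporter cells (2,500/well) plated 24 h, then compounds added at up to 57.5 uM final for 24 h at 37 °C. Firefly luminescence by Dual-Glo, normalized to vehicle (0%) and zero RLU (-100%).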

Activity change, positive = activation, inactive:
CC(C)CNC(=O)Nc1cc(C(=O)NCc2ccc(C(C)C)cc2)ccc1N1CCCC1 -9.3%
CCOc1ccc(NC(=O)c2cc3cc(C)ccc3n2C)cc1 1.38%
CCOC(=O)c1sc2ncn(CC(=O)Nc3cc(Cl)ccc3C)c(=O)c2c1C 9.94%
CCOC(=O)c1cc2c(=O)n3ccccc3nc2n(CC2CCCO2)c1=NC(=O)c1ccccc1Br (stereo unspecified) 15.6%
CC(=O)c1ccc(N2CCN(C(=O)c3cc(S(=O)(=O)N4CCCCCC4)cn3C)CC2)cc1 -20%
Cc1cccc(NC(=O)CSc2ccc(-c3sc(-c4ccccc4)nc3C)nn2)c1C -4.5%
CC(=O)Nc1cccc(NC(=O)CSc2nccn2Cc2ccc3c(c2)OCO3)c1 -12.2%
Cc1cc(C(=O)Nc2c(C)cccc2C)n(-c2ccccc2)n1 -12%
COCCCNC(=O)c1ccc(Cn2c(SCc3ccc(F)cc3)nc3cccnc32)cc1 8.33%
O=C(OCc1cc(=O)n2nc(-c3cccs3)sc2n1)c1cccc(F)c1 3.74%
CC(C)CCN(C(=O)Nc1ccc(Cl)c(Cl)c1)C1CCN(C(C)C)CC1 -20.1%
O=C(c1noc2c1CCCCC2)N1CCN(c2cccc(Cl)c2)CC1 -21.7%
Cc1ccc(NC(=O)N2CC3CCCN3c3ccccc32)cc1Cl (stereo unspecified) -18.2%
O=C(Cn1ncc2c3ccccc3n(Cc3ccccc3F)c2c1=O)N1CCCCCC1 0.237%
CCN1CCN(c2nnc(-n3cccc3C(=O)NCc3ccccc3OC)s2)CC1 5.93%
COc1ccc(NC(=O)C2CCN(C3=NS(=O)(=O)C(c4ccc(C)c(C)c4)=C3C)CC2)c(OC)c1 -18%
Cc1ccccc1OC(=O)c1cc(-c2ccc3c(c2)OCCO3)on1 -3.01%
O=C(NCCc1csc(-c2cccc(F)c2)n1)C(=O)Nc1cc(F)ccc1F 2.88%
COc1cccc(CNC(=O)C2CCN(S(=O)(=O)c3c(C)noc3/C=C/c3cccs3)CC2)c1 -24.4%
Cc1ccc(C)c(NC(=O)Cc2coc3cc(C)cc(C)c23)c1 -14%
CCc1ccccc1NC(=O)Cn1nnc2sc3c(c2c1=O)CCC(C(C)(C)C)C3 (stereo unspecified) -29.9%
COc1ccc(C)cc1NS(=O)(=O)c1cnc(N)nc1 -8.27%
CCNC(=O)c1ccc(C)c(-n2c(C)nc3cccnc32)c1 1.73%
Cc1ccc(NC(=O)Cn2c(=O)c3ccc(Cl)cc3n3nncc23)cc1 -8.88%
O=C(Cn1c(-c2cccs2)cc2ccccc21)N1CCN(c2ccc(Cl)cc2)CC1 -3.24%
CCOc1ccc(C2C(C(=O)Nc3ccccc3)=C(C)Nc3nc(-c4ccccc4)nn32)cc1OC (stereo unspecified) -14.9%
COc1cccc(-c2csc(-c3c(N)c(C(=O)c4ccc5c(c4)OCO5)n4ccccc34)n2)c1 5.65%
Cc1ccc(S(=O)(=O)NC(=O)NN2CCCCCC2)cc1 -13.1%
COc1ccc(-c2cn3c(n2)sc2cc(C(=O)NCCC4=CCCCC4)ccc23)cc1 12.3%
COc1cccc(OC)c1C(=O)N[C@@H]1C(=O)N2[C@@H]1SC(C)(C)[C@@H]2C(=O)O 0.497%
COc1ccc(OC)c(NC(=O)C(C)n2c(=O)cc(C)c3c(C)nn(-c4ccccc4)c32)c1 (stereo unspecified) -1.41%
O=c1c2cnn(-c3ccc(F)cc3)c2ncn1Cc1ccccc1Cl -7.99%
Cc1ccc(CNC(=O)c2c[nH]c3ccc(S(=O)(=O)N4CCOCC4)cc3c2=O)cc1 1.58%
Cc1cc(C)n(CCc2nc3c4ccccc4nc(SCc4ccc(F)cc4)n3n2)n1 -11.1%
Cc1ccc(S(=O)(=O)c2nnn3c2nc(NC2CCCCCC2)c2sccc23)cc1C -20.7%
CC(C)c1nn2c(=O)cc(COC(=O)C3CCCCC3)nc2s1 15%
Cc1ccc(CN(Cc2ccco2)C(=O)c2ccccc2Br)o1 -36.4%
CCCOc1cccc(C2c3c(oc4ccc(F)cc4c3=O)C(=O)N2CCCN2CCOCC2)c1 (stereo unspecified) -12.7%
CCCOc1ccc(-c2nonc2NC(=O)c2ccco2)cc1OCCC -8.97%
Cc1nc(-c2ccc(S(=O)(=O)N3CCN(c4cccc(C(F)(F)F)c4)CC3)cc2)co1 -37.4%
CC1CCN(C(=O)c2cc3c(=O)n(C)c4cc(Cl)ccc4c3s2)CC1 -5.14%
Cc1cc(Br)cc(C)c1NC(=O)c1sc2ncn(Cc3cccc(F)c3)c(=O)c2c1C -15.6%
Cc1ccc(-n2cnc3cc(C(=O)NCCC4=CCCCC4)ccc32)c(C)c1 -12.4%
CCOC(=O)Cc1ccc(NC(=O)N(Cc2ccc(OC)cc2)C2CCN(C(C)=O)CC2)cc1 -11.2%
Cc1cccc(C)c1OCC(=O)N(Cc1ccccc1F)C1CCS(=O)(=O)C1 (stereo unspecified) -21.1%
CCc1ccc(NC(=O)c2sc(-n3nc(C)c(CCC(C)C)c3C)nc2C)cc1 -11.5%
COc1ccc(C(=O)N2CC(=O)Nc3ccc(Br)cc3C2c2ccc(F)cc2)cc1OC (stereo unspecified) -24.4%
COc1ccc(NC(=O)c2ccc3oc(=O)c(S(=O)(=O)c4ccc(F)cc4)cc3c2)cc1OC -87.5%
O=C(NC1CC(=O)N(c2ccc(F)cc2)C1)C1CCCC1 (stereo unspecified) -4.72%
Cc1ccc(Cc2cnc(NC(=O)c3ccc4c(c3)CC(c3ccccc3)OC4=O)s2)cc1 (stereo unspecified) -20.7%
Cc1c(C(=O)Nc2ccc(F)cc2F)oc2c1-c1nn(Cc3c(F)cccc3Cl)cc1CC2 -20%
CC(=O)c1ccc(S(=O)(=O)Nc2ccc(-c3cn4c(C)csc4n3)cc2)cc1 -12.7%
COc1ccc(C)cc1NC(c1nnc(-c2ccccc2)o1)c1ccc(F)cc1Cl (stereo unspecified) -13.8%
CCOC(=O)c1c(NC(=O)c2ccc(C)cc2)sc2c1CCCCC2 -11.6%
CCc1ccc(N2CC(c3nnc(NC(=O)c4ccco4)s3)CC2=O)cc1 (stereo unspecified) -9.58%
N#Cc1ccccc1NC(=O)CSc1nc(-c2ccccc2)cc(C(F)(F)F)c1C#N -2.58%
COc1cc(Cl)c(C)cc1NC(=O)c1cc(S(=O)(=O)N2CCCC2)ccc1F -12.8%
Cc1ccc(Nc2nc(-c3ccccc3)nc3ccccc23)cc1 -28.5%
CCOc1ccc(C2=NC(c3ccncc3)=Nc3ccc(C)cc3N2)cc1OCC -10.6%
CCCCCCCCCCCCCCCCOP(=O)([O-])OCC[N+](C)(C)C -18.6%
COc1ccccc1-c1c(C)nn2c(-c3ccccc3)cc(-c3ccccc3)nc12 -10.2%
Cc1ccc(OCCn2cc(C(=O)c3cccs3)c3ccccc32)cc1 -22.8%
COc1cccc(/C=C/c2onc(C)c2S(=O)(=O)N2CCC(C(=O)N3CCCCC3)CC2)c1 -38.6%
COc1ccc(C2CC(=O)c3c([nH]c(C(=O)OCc4ccccc4)c3C)C2)cc1 (stereo unspecified) -20.6%
COc1ccccc1NC(=O)C1=C(C)Nc2c(C(=O)Nc3ccc(C)cc3)cnn2C1c1cccc(OC)c1OC (stereo unspecified) 2.56%
Cc1ccccc1NC(=O)c1cc2c(-c3ccccc3)nn(-c3ccccc3)c2s1 -5.27%
COc1ccc(N(Cc2ccccc2)C(=O)c2nc(S(C)(=O)=O)ncc2Cl)cc1 -93.5%
Cc1ccsc1/C=C/C1=NCCCN1C 2.1%
Cc1cccc(N2CCN(C(=O)Cn3nc(C)c4sc5ccccc5c4c3=O)CC2)c1C 16.7%
CCCSCCCNC(=O)C1CCN(C(=O)c2cnn(-c3ccccc3)c2-n2cccc2)CC1 -35.9%
COc1ccc(CNC(=O)Cn2c(=O)nc(-c3ccccc3)c3cc(Cl)ccc32)cc1OC 8.93%
COc1cccc(C(=O)Nc2ccc(-n3nncc3-c3ccccc3)cc2)c1OC -12.8%
CCn1c2ccccc2c2nnc(N3CCN(c4cccc(Cl)c4)CC3)nc21 -0.599%
CCOC(=O)c1c(C)[nH]c(CCC(=O)NCc2ccc(OC)c(OC)c2)c1C -1.01%
CSc1nn(CC(=O)Nc2ccccc2F)c(N)c1S(=O)(=O)c1ccccc1 -31%
CC(Cc1ccc(O)c(O)c1)(NN)C(=O)O (stereo unspecified) -11.2%
COc1ccc(CNC(=O)Cc2c(C)c3cc4c(C)coc4cc3oc2=O)cc1 -5.95%
Cc1ccc(N2CCn3c2nc2c3c(=O)n(C/C=C/c3ccccc3)c(=O)n2C)cc1C -6.1%
COCCCNC(=O)Cn1c(=O)n(-c2cccc(C)c2)c(=O)c2c1c1cc(C)ccc1n2C -2.96%
CCc1ccc(NC(=O)CCc2c(C)nc3nc(-c4cc(OC)cc(OC)c4)nn3c2C)cc1 -10.8%
COc1ccc(-c2noc(CCCC(=O)Nc3cccc(Cl)c3C)n2)cc1 -79.8%
Cc1cc(NS(=O)(=O)c2ccc(N)cc2)nc(C)n1 -4.38%
Cc1ccc(CN2CCSc3ccc(C(=O)NCc4ccc(OC(C)C)cc4)cc32)cc1 -23.7%
COc1ccc(-n2nc3ccc(NC(=O)c4c(OC)cccc4OC)cc3n2)cc1 8.46%
O=C(Cn1c(=O)n(-c2ccc(F)cc2)c(=O)c2sc3ccccc3c21)NC1CCCC1 -7.22%
CCc1ccc2oc(C(=O)Nc3ccccc3OC)cc(=O)c2c1 15.5% [at 11.5 µM, percent change from vehicle, -100% = no light]
CCc1nc2ccccc2n2c(-c3ccc(C)cc3)c3c(=O)n(C)c(=O)n(C)c3c12 -6.02%
Cc1cccc(N2CCN(C(c3ccccc3)c3nnc(-c4ccccc4F)o3)CC2)c1C (stereo unspecified) -16.3%
Fc1ccc(Nc2nc(SCc3ccccc3Cl)nc3ccccc23)cc1 -33.5%
Cc1cc(C)cc(NC(=O)C2CCCN(S(=O)(=O)c3cccc4nsnc34)C2)c1 (stereo unspecified) -9.75%
NC(=O)C1CCN(C(=O)c2ccc3c(c2)N(Cc2cccc(Cl)c2)C(=O)c2ccccc2S3=O)CC1 (stereo unspecified) -8.74%
COc1ccc(CSc2nc3ccncc3n2CC(=O)Nc2cc(C)cc(C)c2)cc1 3.8%
CCOC(=O)c1c(C)[nH]c(C)c1S(=O)(=O)NCC(=O)Nc1ccc(C)cc1C -2.89%
Cc1csc2nc(COC(=O)CNC(=O)c3ccc(F)cc3)cc(=O)n12 7.39%
CCc1ccc(NCc2cc3ccc(OC)cc3n(CC(=O)Nc3ccccc3C)c2=O)cc1 -9.04%
COc1ccc(NC(=O)CSc2nc(-c3cccs3)cc(C(F)(F)F)n2)cc1Cl -42.6%
